Measured values published in the supplement of paper PMC10126150.
Sequences with one replicate were seen in a single cluster, so their values are uncertain.

The sequences below were run on ATP (assay: switch fluorescence ratio, 500 uM ATP over buffer (Cy3 cluster intensity, sum of 5 cycles each) (fold (ratio)); higher = stronger signal-on switching upon ATP binding; sequences stand for … in TCGTCGGCAGCGTCAGATGTGTATAAGAGACAGTTTTTTTTTTTTTTTTTTTTTTTTT…TC). Conditions: aptamer strand: ATP DNA aptamer (quencher-CACCTGGGGGAGTATTGCGGAGGAAGG + anchor), 100 nM annealed; ATP concentration: 500 uM; one replicate.
Procedure, shortened: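 Five buffer/ATP imaging cycles were run on Cy3-labelled switching-strand clusters on a modified Illumina MiSeq flow-cell, with NaOH stripping and re-annealing between cycles. In each cycle, clusters annealed to 100 nM quencher-labelled ATP aptamer were imaged in selection buffer, then after 15 min with 500 uM ATP at 22 °C. Per cluster, the fluorescence ratio is summed target-cycle over summed buffer-cycle Cy3 intensity, averaged per switch-domain sequence. Only clusters within 100-1000 RFU were kept.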
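Also: ATP exposure 15 min at 22 °C before imaging.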

**Q.** For TTAACAGTTA, which switch fluorescence ratio is on record?
**A.** 0.968

**Q.** For TTAACCCAAC, which switch fluorescence ratio is on record?
**A.** 1.09

**Q.** Which switch fluorescence ratio does the source give for TTAACCGGTG here?
**A.** 0.994

**Q.** How did the switch fluorescence ratio turn out when TTAACGCGGG was run?
**A.** 0.973

**Q.** TTAACGGCAT was tested. Which switch fluorescence ratio did it give?
**A.** 1.07

**Q.** TTAACGGT was tested. Which switch fluorescence ratio did it give?
**A.** 1

**Q.** TTAACGTTAA was tested. Which switch fluorescence ratio did it give?
**A.** 1.2

**Q.** Which switch fluorescence ratio does the source give for TTAACTGTCG here?
**A.** 1.01

**Q.** How did the switch fluorescence ratio turn out when TTAAGAACTC was run?
**A.** 1.07

**Q.** TTAAGAATAA was tested. Which switch fluorescence ratio did it give?
**A.** 0.998

**Q.** With TTAAGACACT as the sequence, how does the switch fluorescence ratio read?
**A.** 1.01

**Q.** How did the switch fluorescence ratio turn out when TTAAGAGACT was run?
**A.** 0.98

**Q.** Which switch fluorescence ratio does the source give for TTAAGAGAGT here?
**A.** 0.984

**Q.** Which switch fluorescence ratio does the source give for TTAAGCAGAG here?
**A.** 0.972

**Q.** For TTAAGCAGGG, which switch fluorescence ratio is on record?
**A.** 0.98

**Q.** With TTAAGCGGTA as the sequence, how does the switch fluorescence ratio read?
**A.** 1

**Q.** Which switch fluorescence ratio does the source give for TTAAGGCTT here?
**A.** 0.962

**Q.** With TTAAGGTAAC as the sequence, how does the switch fluorescence ratio read?
**A.** 1.03

**Q.** How did the switch fluorescence ratio turn out when TTAAGTCGTA was run?
**A.** 0.949

**Q.** Which switch fluorescence ratio does the source give for TTAAGTCTGT here?
**A.** 1.01

**Q.** Which switch fluorescence ratio does the source give for TTAAGTTCC here?
**A.** 1.03

**Q.** TTAAGTTCTG was tested. Which switch fluorescence ratio did it give?
**A.** 0.987

**Q.** Which switch fluorescence ratio does the source give for TTAAGTTGGC here?
**A.** 1.04

**Q.** With TTAATAAGTT as the sequence, how does the switch fluorescence ratio read?
**A.** 1.03

**Q.** With TTAATATAAA as the sequence, how does the switch fluorescence ratio read?
**A.** 0.976

**Q.** How did the switch fluorescence ratio turn out when TTAATATTA was run?
**A.** 1.02

**Q.** With TTAATCCTTT as the sequence, how does the switch fluorescence ratio read?
**A.** 1.02

**Q.** How did the switch fluorescence ratio turn out when TTAATCTCAT was run?
**A.** 0.949

**Q.** For TTAATGCTTG, which switch fluorescence ratio is on record?
**A.** 0.984

**Q.** TTAATGGAAG was tested. Which switch fluorescence ratio did it give?
**A.** 0.961

**Q.** For TTAATGGACG, which switch fluorescence ratio is on record?
**A.** 0.967

**Q.** With TTAATGTACA as the sequence, how does the switch fluorescence ratio read?
**A.** 1.01

**Q.** Which switch fluorescence ratio does the source give for TTAATGTATG here?
**A.** 1.01

**Q.** Which switch fluorescence ratio does the source give for TTAATTCCAT here?
**A.** 0.992

**Q.** With TTAATTGT as the sequence, how does the switch fluorescence ratio read?
**A.** 0.989

**Q.** Which switch fluorescence ratio does the source give for TTAATTGTCA here?
**A.** 1.02

**Q.** How did the switch fluorescence ratio turn out when TTAATTTTG was run?
**A.** 0.985

**Q.** TTACAAACTA was tested. Which switch fluorescence ratio did it give?
**A.** 1.09

**Q.** For TTACAATGGT, which switch fluorescence ratio is on record?
**A.** 0.99

**Q.** TTACACGATT was tested. Which switch fluorescence ratio did it give?
**A.** 1.05

**Q.** With TTACAGAACA as the sequence, how does the switch fluorescence ratio read?
**A.** 1.09

**Q.** For TTACAGCGAT, which switch fluorescence ratio is on record?
**A.** 1.14

**Q.** TTACAGCGTT was tested. Which switch fluorescence ratio did it give?
**A.** 1.03

**Q.** Which switch fluorescence ratio does the source give for TTACAGGAGT here?
**A.** 0.965

**Q.** How did the switch fluorescence ratio turn out when TTACATGAT was run?
**A.** 0.972

**Q.** Which switch fluorescence ratio does the source give for TTACATTCCA here?
**A.** 1.05

**Q.** How did the switch fluorescence ratio turn out when TTACATTCGC was run?
**A.** 1.02

**Q.** Which switch fluorescence ratio does the source give for TTACCAGGAG here?
**A.** 1.16

**Q.** TTACCCCACG was tested. Which switch fluorescence ratio did it give?
**A.** 1.55

**Q.** Which switch fluorescence ratio does the source give for TTACCCGGCG here?
**A.** 1.08

**Q.** For TTACCGATGG, which switch fluorescence ratio is on record?
**A.** 1.04

**Q.** For TTACCGGAGC, which switch fluorescence ratio is on record?
**A.** 1.69

**Q.** TTACCTGCGG was tested. Which switch fluorescence ratio did it give?
**A.** 1.01

**Q.** Which switch fluorescence ratio does the source give for TTACCTTGT here?
**A.** 0.984

**Q.** For TTACGAGCTG, which switch fluorescence ratio is on record?
**A.** 1.06

**Q.** For TTACGAGGGT, which switch fluorescence ratio is on record?
**A.** 0.941

**Q.** Which switch fluorescence ratio does the source give for TTACGCATAA here?
**A.** 2.85

**Q.** Which switch fluorescence ratio does the source give for TTACGGCGAT here?
**A.** 1.08

**Q.** How did the switch fluorescence ratio turn out when TTACGGTGTG was run?
**A.** 0.989

**Q.** With TTACGTTATA as the sequence, how does the switch fluorescence ratio read?
**A.** 1.21

**Q.** TTACTCCTAC was tested. Which switch fluorescence ratio did it give?
**A.** 1.91

**Q.** TTACTGATTG was tested. Which switch fluorescence ratio did it give?
**A.** 1.3

**Q.** Which switch fluorescence ratio does the source give for TTAGAAAAGT here?
**A.** 0.968

**Q.** How did the switch fluorescence ratio turn out when TTAGAAAGAC was run?
**A.** 1.17

**Q.** For TTAGAAGGAA, which switch fluorescence ratio is on record?
**A.** 0.969

**Q.** Which switch fluorescence ratio does the source give for TTAGAATCAT here?
**A.** 0.993

**Q.** For TTAGACAGT, which switch fluorescence ratio is on record?
**A.** 1.01

**Q.** With TTAGACATCT as the sequence, how does the switch fluorescence ratio read?
**A.** 0.998

**Q.** TTAGACCTTT was tested. Which switch fluorescence ratio did it give?
**A.** 1.06

**Q.** How did the switch fluorescence ratio turn out when TTAGACTAAC was run?
**A.** 1.02

**Q.** With TTAGAGGCCT as the sequence, how does the switch fluorescence ratio read?
**A.** 1

**Q.** With TTAGAGTA as the sequence, how does the switch fluorescence ratio read?
**A.** 1.03

**Q.** With TTAGATAACA as the sequence, how does the switch fluorescence ratio read?
**A.** 0.95

**Q.** How did the switch fluorescence ratio turn out when TTAGATATGT was run?
**A.** 1.05

**Q.** How did the switch fluorescence ratio turn out when TTAGCGAACA was run?
**A.** 1.04

**Q.** Which switch fluorescence ratio does the source give for TTAGCGGTG here?
**A.** 0.971

**Q.** Which switch fluorescence ratio does the source give for TTAGCGTAAT here?
**A.** 1.15

**Q.** How did the switch fluorescence ratio turn out when TTAGCGTTTC was run?
**A.** 0.997

**Q.** TTAGCTCAGG was tested. Which switch fluorescence ratio did it give?
**A.** 1.07

**Q.** Which switch fluorescence ratio does the source give for TTAGGACCTT here?
**A.** 0.974

**Q.** Which switch fluorescence ratio does the source give for TTAGGAGGA here?
**A.** 0.955

**Q.** How did the switch fluorescence ratio turn out when TTAGGCACCC was run?
**A.** 1.07

**Q.** For TTAGGCGTAA, which switch fluorescence ratio is on record?
**A.** 0.981

**Q.** With TTAGGGCGT as the sequence, how does the switch fluorescence ratio read?
**A.** 0.959

**Q.** TTAGGGGGA was tested. Which switch fluorescence ratio did it give?
**A.** 1.01

**Q.** TTAGGGTATC was tested. Which switch fluorescence ratio did it give?
**A.** 0.978

**Q.** TTAGGGTGTG was tested. Which switch fluorescence ratio did it give?
**A.** 1.03

**Q.** With TTAGGTAAAG as the sequence, how does the switch fluorescence ratio read?
**A.** 0.958

**Q.** TTAGGTATAA was tested. Which switch fluorescence ratio did it give?
**A.** 0.981

**Q.** TTAGGTATCC was tested. Which switch fluorescence ratio did it give?
**A.** 0.999

**Q.** For TTAGGTATTT, which switch fluorescence ratio is on record?
**A.** 1.02

**Q.** For TTAGGTTGAG, which switch fluorescence ratio is on record?
**A.** 0.978

**Q.** How did the switch fluorescence ratio turn out when TTAGGTTTCG was run?
**A.** 0.962

**Q.** For TTAGTACGGA, which switch fluorescence ratio is on record?
**A.** 1.03

**Q.** Which switch fluorescence ratio does the source give for TTAGTACTC here?
**A.** 1

**Q.** With TTAGTAGAAA as the sequence, how does the switch fluorescence ratio read?
**A.** 1

**Q.** TTAGTAGAAG was tested. Which switch fluorescence ratio did it give?
**A.** 1.04

**Q.** With TTAGTATCTG as the sequence, how does the switch fluorescence ratio read?
**A.** 1.01

**Q.** TTAGTCCAAC was tested. Which switch fluorescence ratio did it give?
**A.** 0.995

**Q.** Which switch fluorescence ratio does the source give for TTAGTCCGCT here?
**A.** 1.27

**Q.** TTAGTCCTCT was tested. Which switch fluorescence ratio did it give?
**A.** 0.981
